# The list shows a part of the results.
# B1: SBD-G4S3-Fc (protein)
# chain: MASIPSSASVQLDSYNYDGSTFSGKIYVKNIAYSKKVTVVYADGSDNWNNNGNIIAASFSGPISGSNYEYWTFSASVKGIKEFYIKYEVSGKTYYDNNNSANYQVSTGGGGSGGGGSGGGGSEFVPRDCGCKPCICTVPEVSSVFIFPPKPKDVLTITLTPKVTCVVVDISKDDPEVQFSWFVDDVEVHTAQTQPREEQFNSTFRSVSELPIMHQDWLNGKEFKCRVNSAAFPAPIEKTISKTKGRPKAPQVYTIPPPKEQMAKDKVSLTCMITDFFPEDITVEWQWNGQPAENYKNTQPIMDTDGSYFVYSKLNVQKSNWEAGNTFTCSVLHEGLHNHHTEKSLSHSPGAA
# Assays:
# Test in all cases: glycan array binding signal (z-score within array); higher = stronger binding
# Conditions in all cases: glycan notation: IUPAC condensed, linker removed
# Gal3S(b1-4)Glc = molecular target: Gal3S(b1-4)Glc
# How it was run: (§1)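 Columns mapping to the same glycan were averaged after glycan names were converted to IUPAC-condensed notation. The data come from 3228 arrays in the Consortium for Functional Glycomics database, limited to those with an available protein sequence. Binding is reported as a within-array Z-score averaged across arrays of one protein sequence and across linkers.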
# Gal3S(b1-4)Glc6S = molecular target: Gal3S(b1-4)Glc6S
# How it was run: as §1
# Gal3S(b1-4)GlcNAc = molecular target: Gal3S(b1-4)GlcNAc
# How it was run: as §1
# [1] = molecular target: Gal3S(b1-4)[Fuc(a1-3)]Glc6S
# How it was run: as §1
# [2] = molecular target: Gal3S(b1-4)[Fuc(a1-3)]GlcNAc
# How it was run: as §1
# [3] = molecular target: Gal3S(b1-4)[Fuc(a1-3)]GlcNAc6S
# How it was run: as §1
# Gal3S4S(b1-4)GlcNAc = molecular target: Gal3S4S(b1-4)GlcNAc
# How it was run: as §1
# Gal3S6S(b1-4)GlcNAc = molecular target: Gal3S6S(b1-4)GlcNAc
# How it was run: as §1
# Gal3S6S(b1-4)GlcNAc6S = molecular target: Gal3S6S(b1-4)GlcNAc6S
# How it was run: as §1
# Gal4S(b1-4)GlcNAc = molecular target: Gal4S(b1-4)GlcNAc
# How it was run: as §1
# Gal4S6S(b1-4)GlcNAc = molecular target: Gal4S6S(b1-4)GlcNAc
# How it was run: as §1
# Gal6P(b1-4)GlcNAc = molecular target: Gal6P(b1-4)GlcNAc
# How it was run: as §1
# Gal6S(b1-3)GlcNAc = molecular target: Gal6S(b1-3)GlcNAc
# How it was run: as §1
# Gal6S(b1-3)GlcNAc6S = molecular target: Gal6S(b1-3)GlcNAc6S
# How it was run: as §1
# Gal6S(b1-4)Glc = molecular target: Gal6S(b1-4)Glc
# How it was run: as §1
# Gal6S(b1-4)Glc6S = molecular target: Gal6S(b1-4)Glc6S
# How it was run: as §1
# Gal6S(b1-4)GlcNAc = molecular target: Gal6S(b1-4)GlcNAc
# How it was run: as §1
# Gal6S(b1-4)GlcNAc6S = molecular target: Gal6S(b1-4)GlcNAc6S
# How it was run: as §1
# GalNAc(a1-3)Gal = molecular target: GalNAc(a1-3)Gal
# How it was run: as §1
# GalNAc(a1-3)GalNAc = molecular target: GalNAc(a1-3)GalNAc
# How it was run: as §1
# [4] = molecular target: GalNAc(a1-3)GalNAc(b1-3)Gal(a1-4)Gal(b1-4)Glc
# How it was run: as §1
# [5] = molecular target: GalNAc(a1-3)GalNAc(b1-3)Gal(a1-4)Gal(b1-4)GlcNAc
# How it was run: as §1
# GalNAc(b1-3)Gal = molecular target: GalNAc(b1-3)Gal
# How it was run: as §1
# [6] = molecular target: GalNAc(b1-3)Gal(a1-4)Gal(b1-4)GlcNAc
# How it was run: as §1
# [7] = molecular target: GalNAc(b1-3)Gal(a1-4)Gal(b1-4)GlcNAc(b1-3)Gal(b1-4)Glc
# How it was run: as §1
# [8] = molecular target: GalNAc(b1-3)Gal(a1-6)Gal(b1-4)Glc
# How it was run: as §1
# GalNAc(b1-3)GalNAc = molecular target: GalNAc(b1-3)GalNAc
# How it was run: as §1
# GalNAc(b1-3)GlcNAc = molecular target: GalNAc(b1-3)GlcNAc
# How it was run: as §1
# GalNAc(b1-4)Gal(b1-4)Glc = molecular target: GalNAc(b1-4)Gal(b1-4)Glc
# How it was run: as §1
# GalNAc(b1-4)GlcNAc = molecular target: GalNAc(b1-4)GlcNAc
# How it was run: as §1
# [9] = molecular target: GalNAc(b1-4)GlcNAc(b1-2)Man
# How it was run: as §1
# [10] = molecular target: GalNAc(b1-4)GlcNAc(b1-2)Man(a1-3)[GalNAc(b1-4)GlcNAc(b1-2)Man(a1-6)]Man(b1-4)GlcNAc(b1-4)GlcNAc
# How it was run: as §1
# [11] = molecular target: GalNAc(b1-4)GlcNAc(b1-3)GalNAc(b1-4)GlcNAc
# How it was run: as §1
# GalNAc(b1-4)GlcNAc6S = molecular target: GalNAc(b1-4)GlcNAc6S
# How it was run: as §1
# GalNAc(b1-6)GalNAc = molecular target: GalNAc(b1-6)GalNAc
# How it was run: as §1
# GalNAc3S(b1-4)GlcNAc = molecular target: GalNAc3S(b1-4)GlcNAc
# How it was run: as §1
# GalNAc3S(b1-4)GlcNAc3S = molecular target: GalNAc3S(b1-4)GlcNAc3S
# How it was run: as §1
binder,measurement,setting,value
B1,glycan array binding signal (z-score),Gal3S(b1-4)Glc,-0.216
same,glycan array binding signal (z-score),Gal3S(b1-4)Glc6S,-0.222
same,glycan array binding signal (z-score),Gal3S(b1-4)GlcNAc,-0.058
same,glycan array binding signal (z-score),[1],0.319
same,glycan array binding signal (z-score),[2],0.215
same,glycan array binding signal (z-score),[3],0.226
same,glycan array binding signal (z-score),Gal3S4S(b1-4)GlcNAc,-0.1
same,glycan array binding signal (z-score),Gal3S6S(b1-4)GlcNAc,0.373
same,glycan array binding signal (z-score),Gal3S6S(b1-4)GlcNAc6S,-0.03
same,glycan array binding signal (z-score),Gal4S(b1-4)GlcNAc,-0.493
same,glycan array binding signal (z-score),Gal4S6S(b1-4)GlcNAc,-0.029
same,glycan array binding signal (z-score),Gal6P(b1-4)GlcNAc,-0.45
same,glycan array binding signal (z-score),Gal6S(b1-3)GlcNAc,0.372
same,glycan array binding signal (z-score),Gal6S(b1-3)GlcNAc6S,0.013
same,glycan array binding signal (z-score),Gal6S(b1-4)Glc,0.105
same,glycan array binding signal (z-score),Gal6S(b1-4)Glc6S,0.402
same,glycan array binding signal (z-score),Gal6S(b1-4)GlcNAc,0.28
same,glycan array binding signal (z-score),Gal6S(b1-4)GlcNAc6S,0.036
same,glycan array binding signal (z-score),GalNAc(a1-3)Gal,0.167
same,glycan array binding signal (z-score),GalNAc(a1-3)GalNAc,-0.317
same,glycan array binding signal (z-score),[4],-0.015
same,glycan array binding signal (z-score),[5],-0.169
same,glycan array binding signal (z-score),GalNAc(b1-3)Gal,-0.376
same,glycan array binding signal (z-score),[6],-0.353
same,glycan array binding signal (z-score),[7],0.453
same,glycan array binding signal (z-score),[8],-0.468
same,glycan array binding signal (z-score),GalNAc(b1-3)GalNAc,-0.442
same,glycan array binding signal (z-score),GalNAc(b1-3)GlcNAc,0.108
same,glycan array binding signal (z-score),GalNAc(b1-4)Gal(b1-4)Glc,-0.21
same,glycan array binding signal (z-score),GalNAc(b1-4)GlcNAc,-0.142
same,glycan array binding signal (z-score),[9],-0.357
same,glycan array binding signal (z-score),[10],-0.087
same,glycan array binding signal (z-score),[11],0.066
same,glycan array binding signal (z-score),GalNAc(b1-4)GlcNAc6S,-0.208
same,glycan array binding signal (z-score),GalNAc(b1-6)GalNAc,-0.297
same,glycan array binding signal (z-score),GalNAc3S(b1-4)GlcNAc,-0.353
same,glycan array binding signal (z-score),GalNAc3S(b1-4)GlcNAc3S,-0.363

# Reference: the supplement of paper PMC8728848
